# Reference: PubChem BioAssay AID686979 (National Center for Advancing Translational Sciences (NCATS), 2013)
# Out of some 420,000 compounds screened, about 50,000 (12%) were called active. The inconclusive results got no clear call from the source; some entries with a clear call stand among them for comparison. Calls come from the whole dose curve; as a rule, active = well fitted inhibition curve with a large enough effect; inconclusive = small, poorly fitted or top-dose-only effect; inactive = flat fitted curve, though single readings scatter. No potency is given beside an inconclusive call; the fits are too rough.
# Test: qHTS for Inhibitors of human tyrosyl-DNA phosphodiesterase 1 (TDP1): qHTS in cells in presence of CPT; note: nearly all actives have a fitted effect of over 55% in size
# Conditions: chicken DT40 Tdp1-/-;hTDP1 cells + 20 nM CPT, ATP luminescence, 48 h; series mostly up to 46.2 µM
# In short: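 Cell growth measured by CellTiter-Glo luminescence after a minimum 48 h, 37 C compound exposure with 20 nM CPT in Tdp1-knockout DT40 cells stably expressing hTDP1, seeded 400/well; qHTS titration format.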
# Potency is the fitted concentration of half-maximal effect; tags give direction and shape of the fitted curve.
row,SMILES,Potency
1,Cc1cc(NC(=O)CN2C(=O)c3cccnc3Sc3ccccc32)ccc1Br,"inconclusive [inhibitor, single point]"
2,CN(Cc1ccccc1Cl)C(=O)C1CCC(=O)N(C2CCCCCC2)C1 (centres undefined),"inconclusive [inhibitor, single point]"
3,O=[N+]([O-])c1ccc(N2CCN(Cc3ccc([N+](=O)[O-])o3)CC2)cc1,"inconclusive [inhibitor, single point]"
4,COc1ccc(NC(=O)CN2CCN(Cc3ccccc3)CC2)cc1,inactive
5,C=CCNC(=O)c1cc(-c2ccccc2)sc1N,"inconclusive [inhibitor, single point]"
6,COC(=O)Nc1cc(C)nc2ccccc12,inactive
7,Cc1nn(CC(=O)NC(C)C(C)C)c(C)c1S(=O)(=O)N1CCCCC1 (centres undefined),inactive
8,COC(=O)CSc1nnc(CSc2nc(C)cc(C)n2)n1Cc1ccco1,inactive
9,Cc1cc(C)cc(-n2c(C)cc(/C=N\NC(=O)COc3cccc4cccnc34)c2C)c1,"inconclusive [inhibitor, single point]"
10,CCN(CC)C(=O)c1cccc(-c2csc(C(O)c3ccccc3)n2)c1 (centres undefined),"inconclusive [inhibitor, single point]"
11,O=P1(NC2CCCCC2)OCC2(CO1)COP(=O)(NC1CCCCC1)OC2 (centres undefined),inactive
12,Cc1cc(C)nc(NC(=NCCc2c[nH]c3ccccc23)NC(=O)Nc2ccc(Cl)cc2)n1,active: 23.1 µM
13,Cc1cccc(NS(=O)(=O)c2ccc(C)c(C(=O)NCc3ccncc3)c2)c1,inactive
14,CCN(c1ccccc1)S(=O)(=O)c1nnc(NC(=O)COc2cccc(C)c2)s1,inactive
15,Cc1nc(N2CCN(c3ccccc3)CC2)[nH]c(=O)c1Cc1ccccc1,"inconclusive [inhibitor, single point]"
16,COc1ccc(-c2csc(-c3[nH]cnc3N)n2)cc1,inactive
17,COc1ccc(NC(=O)COC(=O)C23CC4CC(CC(O)(C4)C2)C3)cc1Cl,"inconclusive [inhibitor, single point]"
18,Clc1ccccc1-c1nc(NCCN2CCOCC2)c2ccccc2n1,"inconclusive [inhibitor, single point]"
19,O=C1NC(c2ccc(Br)cc2)=N/C1=C/c1ccco1,active: 7.31 µM
20,O=C(NC1CCN(C(=O)N2c3ccccc3Sc3ccccc32)CC1)c1ccco1,"inconclusive [inhibitor, partial curve, poor fit]"
21,CN(C)c1ccc(/C=C/c2c([N+](=O)[O-])c(=O)n(C)c(=O)n2C)cc1,inactive
22,CCOC(=O)/C(C#N)=C/c1cc2ccccc2nc1Cl,active: 2.82 µM
23,O=C(CCc1ccccc1)Oc1ccccc1[N+](=O)[O-],inactive
24,Cc1nn(C)c(C)c1CN(C)S(=O)(=O)c1ccc(F)cc1,"inconclusive [inhibitor, partial curve]"
25,Oc1ccc2ccccc2c1Br,"inconclusive [inhibitor, full curve]"

row,SMILES,Potency
1,CC1CCN(c2ccc3c(c2)S(=O)(=O)c2cc(C(=O)O)ccc2C3=O)CC1,inactive
2,Cc1ccc(CNC(=O)CNS(=O)(=O)c2cccs2)cc1,inactive
3,CCOc1ccc(NC(=O)Cn2c(=O)n(CC(=O)NCc3ccccc3Cl)c(=O)c3sccc32)cc1,inactive
4,CC1CCc2c(sc3nc(CN4CCN(S(=O)(=O)c5ccccc5[N+](=O)[O-])CC4)[nH]c(=O)c23)C1 (centres undefined),"inconclusive [inhibitor, single point]"
5,Cc1ccc(OCC2Cn3c(nc4c3c(=O)[nH]c(=O)n4C)O2)cc1C (centres undefined),"inconclusive [inhibitor, partial curve]"
6,COc1ccc(CNC(=O)c2oc3c(c2C)-c2nn(Cc4ccc(Cl)cc4)cc2CC3)cc1,"inconclusive [inhibitor, single point]"
7,O=C(Nc1ccc(Br)cc1)C1CCCN1S(=O)(=O)c1ccc(F)cc1 (centres undefined),"inconclusive [inhibitor, single point]"
8,COc1ccc2nccc(/C=C/c3ccc(N(C)C)cc3)c2c1,"inconclusive [inhibitor, single point]"
9,CCOC(=O)c1c(N2C(=O)C3C4C=CC(O4)C3C2=O)sc2c1CCCC2 (centres undefined),active: 8.2 µM
10,CN1CCN(S(=O)(=O)c2ccc3ccccc3c2)CC1,inactive
11,Cc1nnc(NC(=O)CSCc2cc(=O)c3ccccc3[nH]2)s1,inactive
12,O=C(NC1CCCc2ccccc21)C1CCC(CNS(=O)(=O)c2cccc3nsnc23)CC1 (centres undefined),"inconclusive [inhibitor, single point]"
13,CCN1/C(=C2/SC(=S)N(NC(C)=O)C2=O)Sc2ccc(Cl)cc21,"inconclusive [inhibitor, partial curve, poor fit]"
14,Cc1cc(NC(=O)c2cc(-c3ccccn3)nc3ccccc23)no1,inactive
15,CCN(CC)Cc1ccccc1Sc1ccccc1,inactive
16,CC(C)=CC(=O)Nc1ccc(S(=O)(=O)Nc2ccccn2)cc1,inactive
17,COc1ccc(CCNC(=O)CCn2c(=O)c3ccccc3n(Cc3ccccc3)c2=O)cc1OC,"inconclusive [inhibitor, single point]"
18,CNC(=O)c1ccc(NC(=O)CC2SC(N3CCCC3)=NC2=O)cc1 (centres undefined),inactive
19,COCCOc1cc(N)c(Cl)cc1Cl,inactive
20,COc1ccc(-n2cnc3cc(NCc4ccco4)ccc32)cc1,"inconclusive [inhibitor, single point]"
21,CCOC(=O)Cc1csc(NC(=O)CSc2ncnc3c2cnn3-c2ccccc2Cl)n1,"inconclusive [inhibitor, single point]"
22,CN(C)CCNc1oc(-c2ccc(COc3ccc(Cl)cc3)o2)nc1C#N,active: 16.4 µM
23,COc1ccc2oc(-c3ccncc3)cc(=O)c2c1,"inconclusive [inhibitor, single point]"
24,O=C(NNC(=O)c1n[nH]c(=O)c2ccccc12)c1ccc(Br)cc1,"inconclusive [inhibitor, partial curve]"
